# Assay results published in PMC10668032.
# Some of the results follow. At the low end of the ranking, values are background and their order means little.
# Biological target: SIX1 homeodomain (reference allele) (UniProt Q15475)
# Assay: universal protein binding microarray
# Details: Universal all-10-mer PBM (8x60K, AMADID 030236), 300 nM GST-tagged protein, Alexa Fluor 488 anti-GST; buffer, salt, pH and temperature not stated; high values mean tight binding; most listed sequences are background and not binding sites; double strand, one strand shown
row,Sequence,binding signal [E-score]
1,CATTCAGC,-0.164
2,ATGCGGCA,-0.151
3,GGAGCAAC,-0.241
4,ATTCCTCA,-0.111
5,CTTACAGA,-0.215
6,CTGGGGAA,-0.269
7,CAGCATGC,-0.281
8,CCCCCCTA,0.0367
9,ACTTACTG,-0.0208
10,CATAGTGA,0.0324
11,ATATAGAT,0.287
12,AAGTGTTC,-0.254
13,GCAGAGCA,-0.249
14,GCGACATA,-0.0864
15,CCGAGGCG,0.039
16,TGCACACA,-0.122
17,CCATCGGG,0.0998
18,GCAGCCAC,-0.269
19,CACTCGGG,-0.0465
20,AAACTGGG,-0.243
21,AATCAGAA,-0.219
22,AGACTGGA,-0.0543
23,GCCAAAGC,-0.231
24,ATGTCGGG,-0.031
25,CAGACACC,0.291

row,Sequence,binding signal [E-score]
1,AATTAGGA,-0.108
2,CCGCACCA,-0.0521
3,ACAACTCC,-0.147
4,CAACTACA,0.0485
5,GCTAATCC,0.208
6,GAGTAACC,-0.00546
7,GTCAGTGA,0.0038
8,AATCTTCT,-0.0563
9,CCGCCACA,-0.136
10,GGTAACAC,0.0196
11,CTTTGGTC,-0.0976
12,GTTAGATA,0.248
13,AGACGTGA,-0.185
14,CGACAAGC,-0.116
15,TCAGCTCA,0.162
16,ATTGTATA,0.308
17,TCCTTTCA,-0.207
18,GAGTGCTA,0.0175
19,AAGCAACC,-0.0903
20,AATGACGA,-0.00169
21,AACCTCCT,-0.135
22,GAACGCAA,0.00529
23,ACTGTCAG,-0.171
24,AATCGCAT,0.0704
25,GCGACGCC,-0.157

row,Sequence,binding signal [E-score]
1,GAGAGCGC,0.087
2,CGGAATGC,-0.24
3,CCAATGTA,-0.0376
4,CGTTCCAC,-0.0892
5,CCCCCAAA,-0.218
6,ATGCCCTA,-0.0897
7,TGTTTTAA,-0.274
8,TCATGGAA,-0.166
9,ACAACCAT,-0.101
10,CCCTTAAG,0.00061
11,ATGAAGCA,-0.0687
12,GAGACAGC,-0.0475
13,GCCGTCGA,-0.0394
14,GGGGGACC,-0.286
15,AGAAGATA,0.201
16,CCACATTC,-0.16
17,GCCACCCC,0.0641
18,ACAACGGA,0.0872
19,CCCATAGG,0.0598
20,TAATTCTA,0.0669
21,AACAGAGT,-0.258
22,GATGGTCC,-0.234
23,AGCCCTTA,-0.24
24,ACGGCGCC,-0.249
25,ACCACCCT,-0.0732

row,Sequence,binding signal [E-score]
1,ATCTGGCC,0.181
2,AGCGGTTC,-0.262
3,AGCCAACG,-0.261
4,TTCTTAAA,-0.0269
5,CCTAATAC,0.254
6,ACACCCCT,0.327
7,TTAGCGAA,-0.196
8,ATATAAGG,0.189
9,GAAGCGGC,-0.0272
10,ATTCAAGC,-0.0462
11,GTCGGCAC,-0.218
12,GGGTTGAC,-0.156
13,AATGAAAT,-0.254
14,CCTTGAGA,0.128
15,GCCTTAGC,-0.177
16,ACTGCGGA,0.0276
17,GCGCCAAA,-0.147
18,GCTACAAA,-0.0861
19,ACCCTCGT,0.0137
20,TAGGTACA,-0.168
21,CGAGCAAG,-0.248
22,ACTCAGAG,-0.0934
23,TCCGGCGA,0.135
24,CTGGGCAA,-0.156
25,GGCTGCAA,0.0317

row,Sequence,binding signal [E-score]
1,CGACTCCG,-0.24
2,AATGGCAG,-0.268
3,AGTATAGC,0.129
4,CACTATAG,0.101
5,AGGAAATG,-0.142
6,GCTCTGGA,-0.00988
7,GACCCAAA,-0.176
8,CCTCACCC,-0.131
9,GCCCGACC,0.00164
10,CAAGGTGA,-0.0241
11,AACCAATA,0.128
12,AGACGTAA,-0.127
13,GGCCGATA,0.291
14,GCCAAACC,-0.0893
15,CAATTGGG,-0.137
16,AACTAAGG,-0.155
17,AGACGTGG,0.034
18,AGGAAGAT,0.158
19,ATAAATTC,-0.104
20,AATGACTA,-0.199
21,GCCCGAAC,-0.359
22,CTCCAGAA,0.00752
23,ACGACACT,0.0592
24,ACATAATG,-0.0955
25,CAACCGTC,-0.249

row,Sequence,binding signal [E-score]
1,TCGTCCAA,-0.171
2,CATAAGCA,-0.0887
3,GCGGCTTA,-0.214
4,AGTGTTGC,-0.235
5,ACTACGCC,-0.254
6,CAAATTAC,-0.138
7,AGTGTCCG,0.0243
8,AGAGAACG,-0.0614
9,CCCATCAG,-0.023
10,CCGCTGCC,-0.154
11,ATACCGTC,0.396
12,CTACCGTA,0.0158
13,CCAAGAGC,0.019
14,ACCAATGC,-0.147
15,AACGAGAG,0.112
16,AGTTGAGG,-0.125
17,ATCGCTGA,0.226
18,AACCCTCT,-0.271
19,AACAGTGG,-0.122
20,CCTAGGCA,-0.122
21,CGAAAGTC,-0.141
22,AGGGACCC,-0.23
23,CTGAAGGA,-0.172
24,CGACAGCG,-0.229
25,TAGTTGGA,0.0826

row,Sequence,binding signal [E-score]
1,CGAGGGTA,0.159
2,CCAGCTAG,0.0693
3,GTATAAAC,0.185
4,ACTCCGAG,0.0884
5,GACGCGAC,-0.0517
6,AGTGTAGC,-0.0419
7,CGTACATA,0.021
8,ATTGCTGC,-0.149
9,CAGACTTC,-0.328
10,AATTGGCG,-0.164
11,CGGACGAA,0.0369
12,CGAGCGGC,-0.213
13,GCATTGAA,-0.137
14,CCGCTCCC,-0.132
15,CGTCCCGA,-0.197
16,CACCCCCA,0.171
17,GTTCCAAA,-0.162
18,ATTACTGA,0.127
19,CATCTGGA,0.188
20,GACCAAGA,-0.0376
21,CAATATGG,0.225
22,CTCGCAAC,-0.0352
